Laboratory results from PubChem BioAssay AID624418 (National Center for Advancing Translational Sciences (NCATS), 2012).
Hit rate of the full screen: of about 410,000 compounds, about 530 (0.13%) were called active. Inconclusive results, whose numbers are uncertain, are shown with a selection of clear calls. Calls come from the whole dose curve; as a rule, active = well fitted inhibition curve with a large enough effect; inconclusive = small, poorly fitted or top-dose-only effect, or another doubt; inactive = no such curve, though single readings can be large or run the other way. Where the call is inconclusive, the potency comes from a doubtful curve fit.

Experiment: qHTS of GLP-1 Receptor Inverse Agonists: Cytotox Screen
Details: HEK293 cAMP-luciferase reporter cells, luminescence, 24 h; activity change, negative = inhibition: at 38.3 µM (top of the series) unless noted
Outline: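 MLSMR compounds, 24 hr on cells at 37 deg C/5% CO2; luminescence after luciferase reagent (12 min RT). Inhibition counted as the undesired cytotoxic outcome.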
% is set by controls: 0 for no effect and ±100 for the full control effect; potency is the fitted concentration of half-maximal effect.

| Structure (SMILES) | Potency | activity change, negative = inhibition |
| --- | --- | --- |
| CCCNCC1C(Oc2ccc(Cl)cc2Cl)C(=O)N1c1cccc(C)c1C (stereo not drawn) | inconclusive: 10 µM [inhibitor, single point] |  |
| S=C(Nc1ccccn1)c1ccccn1 | active: 1 µM |  |
| CCCCNc1c(-c2cccc(-c3ccc(OC)cc3)c2)nc2ccc(C)cn12 | inconclusive: 11.2 µM [inhibitor, single point] |  |
| CCN1C[C@@H]2[C@@H]3C(=O)N(C)C(=O)[C@@H]3[C@](C)(C1=O)N2C(=O)c1ccc(Br)cc1 | inconclusive: 28.2 µM [inhibitor, single point] |  |
| CC(C)CC(=O)NC(=S)NCc1ccccc1 | inconclusive: 28.2 µM [inhibitor, single point] |  |
| COc1cccc(C(=O)Nc2cccc(-c3nnc(-c4ccco4)o3)c2)c1 | inconclusive: 15.8 µM [inhibitor, single point] |  |
| COc1cc(/C=C/c2ccc3cccc(O)c3n2)cc(OC)c1OC | inconclusive: 2.51 µM [inhibitor, partial curve, poor fit] |  |
| C[C@@H]1CN([C@H](C)CO)C(=O)Cc2cc(NC(=O)CCC(F)(F)F)ccc2O[C@@H]1CN(C)C(=O)Nc1ccccc1 |  | inactive: -2.39% |
| Cc1cc(CNC(=O)C(C)Cc2ccccc2)nn1C (stereo not drawn) | inconclusive: 28.2 µM [inhibitor, single point] |  |
| C=CCc1cc(C=O)cc(OC)c1OCc1ccc(Cl)cc1 |  | inactive: -4.7% |
| COc1ccc(-c2nnc(SCC(=O)Nc3cccc(C(F)(F)F)c3)s2)cc1 |  | inactive: -18.1% |
| COCCNC(=O)CN(Cc1ccc2c(c1)OCO2)C(=O)CCC(=O)Nc1nccs1 |  | inactive: -11.2% |
| COc1ccc(/C=N/Nc2cc(C)nc(-n3nc(C)cc3C)n2)cc1 | active: 0.794 µM |  |
| Cc1cccnc1C(NC(=O)C1CCN(Cc2cn(C)c3ccccc23)CC1)c1ccc(Cl)cc1 (stereo not drawn) | inconclusive: 20 µM [inhibitor, single point] |  |
| C/C(=N/OC(=O)C1CC1)c1cc(-c2ccc(Cl)cc2)no1 |  | inactive: 3.55% |
| Cc1ccc(CN2CCC(CNC(=O)c3cnn(-c4ccccc4Cl)c3C3CCN(C(=O)OC(C)(C)C)CC3)CC2)cc1 | inconclusive: 3.16 µM [inhibitor, single point] |  |
| C#CCOCCOCCOCCNc1nc(N2CCN(C(=O)CCCCCCCCCCNC(=O)[C@@H](CCSC)n3cc(CCO)nn3)CC2)nc(N2CCN(C(=O)CCCCCCCCCCNC(=O)[C@H]([C@@H](C)CC)n3cc(CCCCN=C(N)N)nn3)CC2)n1 | inconclusive: 28.2 µM [inhibitor, single point] |  |
| CC1CCCN(CCCNC(=O)c2ccc(CS(=O)(=O)c3c(Cl)cccc3Cl)o2)C1 (stereo not drawn) | inconclusive: 11.2 µM [inhibitor, single point] |  |
| COc1ccc(NC(=O)N(C2CCCCC2)C2CCN(C(C)C)CC2)c(OC)c1 | inconclusive: 11.2 µM [inhibitor, partial curve, poor fit] |  |
| CCCN(CCC)CCCNC(=S)Nc1ccc2nc(N3CCN(C)CC3)cc(C)c2c1 | inconclusive: 7.08 µM [inhibitor, partial curve, poor fit] |  |
| CCOc1ccc(S(=O)(=O)N(CC)CC)cc1NS(=O)(=O)c1ccc(F)c(F)c1F |  | inactive: 7.25% |
| CCc1ccc(NC(=O)Cn2c(=O)n(-c3ccc(Cl)c(Cl)c3)c(=O)c3c(C)c(C)sc32)cc1 |  | inactive: 0% |
| Cc1ccc(NS(=O)(=O)c2cc([N+](=O)[O-])ccc2NNC(=S)Nc2cc(C)ccc2C)c(C)c1 | active: 11.2 µM |  |

| Structure (SMILES) | Potency | activity change, negative = inhibition |
| --- | --- | --- |
| O=C1NC(=S)SC1=Cc1ccc(F)cc1 | inconclusive: 28.2 µM [inhibitor, single point] |  |
| CNC(=O)c1cc2cc(OC)ccc2n1CCN(C)C |  | inactive: -6.83% |
| COc1ccc(N2C(=O)CC(Sc3nc(C)c4c(n3)CCCC4)C2=O)cc1 (stereo not drawn) | inconclusive: 11.2 µM [inhibitor, single point] |  |
| Cc1cc(N2CCN(C)CC2)nc2ccc(NC(=S)NCc3cccs3)cc12 | inconclusive: 1 µM [inhibitor, full curve, poor fit] |  |
| COc1cc(Nc2ccc(C)cc2)c([N+](=O)[O-])nc1[N+](=O)[O-] | inconclusive: 1.26 µM [inhibitor, full curve, poor fit] |  |
| CCN(CC)S(=O)(=O)c1ccc(Cl)c(NC(=S)NC(=O)C2CCCC2)c1 | inconclusive: 14.1 µM [inhibitor, single point] |  |
| CCCn1c(NC(=O)c2ccccc2)nc2ccccc21 | inconclusive: 28.2 µM [inhibitor, single point] |  |
| COc1ccc2oc(C(=O)NCCC(C)C)c(C)c2c1 |  | inactive: 20.1% |
| COc1ccccc1-c1nc2n(n1)C(c1ccccc1Cl)C(C(=O)Nc1cccnc1)=C(C)N2 (stereo not drawn) |  | inactive: 2.03% |
| O=C(O)c1ccc(S(=O)(=O)NN=Cc2c[nH]c3ccccc23)cc1 |  | inactive: -1.02% |
| COc1ccccc1C(CNC(=O)c1cccc(NS(=O)(=O)c2ccc(C)c(F)c2)c1)N1CCCC1 (stereo not drawn) | inconclusive: 28.2 µM [inhibitor, single point] |  |
| Cn1c(=O)n(C)c2cc(/C=N/NC(=O)c3ccc(Cl)cc3)ccc21 | inconclusive: 28.2 µM [inhibitor, single point] |  |
| CC(CCc1ccccc1)NC(=O)c1ccc(NC(=O)c2ccccc2)cc1 (stereo not drawn) |  | inactive: -18.8% |
| COc1cccc(N=C2NC(=O)/C(=C/c3cc([N+](=O)[O-])ccc3O)S2)c1 |  | inactive: 2.82% |
| COc1cc2nc(C3CC3)n(NC(=O)c3ccc(Cl)cc3)c(=O)c2cc1OC | inconclusive: 11.2 µM [inhibitor, single point] |  |
| Cc1cccc(CNC(=O)Cn2c(-c3cccs3)cc3ccccc32)c1 |  | inactive: -12.7% |
| Cc1cccc(OCC(=O)Nc2ccccc2C(=O)OCc2cc(=O)n3ccsc3n2)c1 |  | inactive: 14.7% |
| O=C(Nc1ccc(Cc2ccncc2)cc1)c1ccc([N+](=O)[O-])o1 | inconclusive: 14.1 µM [inhibitor, partial curve, poor fit] |  |
| N#C/C(=C\c1c[nH]c2ccccc12)C(=O)NC1CCCC1 | inconclusive: 5.62 µM [inhibitor, partial curve] |  |
| COC(=O)CCSCC(=O)N1N=C(c2ccc(Br)cc2)CC1c1cccc(OC)c1OC (stereo not drawn) |  | inactive: 8.87% |
| O=C(NCc1cccs1)C1CC(c2ccc(Cl)cc2)=NO1 (stereo not drawn) | inconclusive: 5.01 µM [inhibitor, partial curve] |  |
| Nc1nonc1OCCN1CCN(c2ccc([N+](=O)[O-])c3cccnc23)CC1 | inconclusive: 11.2 µM [inhibitor, partial curve] |  |
| CCN(CC)CCN1C(=O)c2cccc3cc(N)cc(c23)C1=O |  | inconclusive: -52.4% [inhibitor] |

| Structure (SMILES) | Potency | activity change, negative = inhibition |
| --- | --- | --- |
| CCN(CC)CC(=O)Nc1ccc(-c2nc3cc(NC(=O)CN(CC)CC)ccc3o2)cc1 | inconclusive: 3.55 µM [inhibitor, full curve] |  |
| O=C(CSc1nnc(Cn2cnc3ccccc32)o1)c1ccccc1 | inconclusive: 28.2 µM [inhibitor, single point] |  |
| Cc1cccc(-c2nc(CN3CCCC(C(=O)N4CCN(c5cc(Cl)ccc5C)CC4)C3)c(C)o2)c1 (stereo not drawn) | inconclusive: 28.2 µM [inhibitor, single point] |  |
| COCCn1cc(C(=O)N2CCN(C)CC2)c2c3ccccc3n(C)c2c1=O |  | inactive: 0.548% |
| CCN(CC)c1ccc(NC2CC(=O)N(CCc3ccc(OC)cc3)C2=O)cc1 (stereo not drawn) | inconclusive: 3.16 µM [inhibitor, partial curve, poor fit] |  |
| COc1ccc(-c2nnc(N3CCOCC3)c3ccccc23)cc1 |  | inactive: 1.8% |
| Cc1cc(/C=C2\NC(=S)N(C)C2=O)ccc1N1CCCC1 | inconclusive: 28.2 µM [inhibitor, single point] |  |
| O=C(O)C1CCCN(S(=O)(=O)c2cccc3cccnc23)C1 (stereo not drawn) | inconclusive: 28.2 µM [inhibitor, single point] |  |
| Cn1c2ccccc2c2cnn(CC(=O)NCCCN3CCCCC3)c(=O)c21 |  | inactive: 1.61% |
| CC[C@H](C)[C@@H](CNC)NC[C@@H](Cc1ccc(O)cc1)NCC(C)(C)C | inconclusive: 28.2 µM [inhibitor, single point] |  |
| CCNC(=O)C1(C)CCN(C(=O)c2ccc(OC(F)F)cc2)C1 (stereo not drawn) | inconclusive: 28.2 µM [inhibitor, single point] |  |
| CCOC(=O)C(CC)n1nnc2sc(-c3ccccc3)cc2c1=O (stereo not drawn) |  | inactive: 5.95% |
| COc1ccc(C(=O)NCCSCc2ccc(Cl)cc2)cc1OC |  | inactive: -3.37% |
| Cc1ccc(/C(N)=N/OC(=O)c2ccc3c(c2)OCO3)cc1 | inconclusive: 14.1 µM [inhibitor, single point] |  |
| CC(C)Oc1ccccc1-c1nc(SCC(=O)c2ccc(F)cc2)n[nH]1 |  | inactive: -6.17% |
| COc1ccc([N+](=O)[O-])cc1NC(=S)NC(NC(=O)C(c1ccccc1)c1ccccc1)C(Cl)(Cl)Cl (stereo not drawn) | inconclusive: 7.94 µM [inhibitor, partial curve] |  |
| Cc1cc(Cl)ccc1N=c1ssnc1Cl | inconclusive: 11.2 µM [inhibitor, single point] |  |
| Cc1ccc2nc3c(nc2c1C)CCCC3 |  | inactive: 11.7% |
| Cc1sc(NC(=O)CSc2ncn(-c3ccccc3)n2)nc1-c1ccccc1 |  | inconclusive: -32.5% [inhibitor] |
| CS(=O)(=O)c1ccc(C(=O)NCCN2C(=O)S/C(=C\c3cccnc3)C2=O)cc1[N+](=O)[O-] | inconclusive: 12.6 µM [inhibitor, single point] |  |
| NCCCCCc1nnc(SCc2ccccc2Cl)o1 | inconclusive: 28.2 µM [inhibitor, single point] |  |
| Cc1ccn2cc(C34CC5CC(CC(C5)C3)C4)nc2c1 | inconclusive: 10 µM [inhibitor, partial curve, poor fit] |  |
